The other results are listed elsewhere or left out. Sequences were assembled here from the parent chain. Values near 0.05 are background.
B1: TEV protease; numbered along this chain (parent)
chain: MGESLFKGPRDYNPISSSICHLTNESDGHTTSLYGIGFGPFIITNKHLFRRNNGTLVVQSLHGVFKVKDTTTLQQHLVDGRDMIIIRMPKDFPPFPQKLKFREPQREERICLVTTNFQTKSMSSMVSDTSCTFPSGDGIFWKHWIQTKDGQCGSPLVSTRDGFIVGIHSASNFTNTNNYFTSVPKNFMELLTNQEAQQWVSGWRLNADSVLWGGHKVFMVKPEEPFQPVKEATQL

Variants of: B1
Assay: raw area under fraction-flipped curve 0-4 h after induction (AUC4h, not background-subtracted), DNA-recorder readout of cleavage of the substrate (dimensionless); higher = more cleavage of the substrate by the protease variant
Details: temperature: 34 °C; time window: 0-4 h after rhamnose induction
Procedure: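 In vivo DNA recorder in E. coli TOP10(DE3) ΔrhaA at 34 °C. Each TEVp single-site mutant (parent TEVp 0) is paired with a single-site variant of the 7-mer TEVs (canonical ENLYFQ|S). The substrate sits between flexible linkers in a Bxb1-sfGFP-TEVs-SsrA fusion, so cleavage stabilises Bxb1 and speeds flipping of a recombination array, read by NGS. The value is the raw area under the fraction-flipped curve over 0-4 h after rhamnose induction (AUC4h), with ≥20 reads per time point. It is not background-subtracted; inactive controls average about 0.047.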
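Note: Bxb1 expression induced with 0.2% (w/v) L-rhamnose at OD600 near 0.5, cultures sampled hourly, flipped fraction per protease–substrate barcode pair counted by paired-end Illumina sequencing.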

Row | Variant | area with substrate CNLYFQS | area with substrate DNLYFQS | area with substrate FNLYFQS | area with substrate GNLYFQS | area with substrate HNLYFQS | area with substrate KNLYFQS | area with substrate MNLYFQS | area with substrate NNLYFQS | area with substrate SNLYFQS | area with substrate TNLYFQS | area with substrate VNLYFQS | area with substrate WNLYFQS | area with substrate YNLYFQS | area with substrate LNLYFQS | area with substrate QNLYFQS | area with substrate PNLYFQS | area with substrate RNLYFQS | area with substrate INLYFQS
1 | S130W | 0.0137 | 0.0694 | 0.0588 | 0.0572 | 0.0623 | 0.0651 | 0.0618 | 0.062 | 0.0591 | 0.0738 | 0.0591 | 0.0617 | 0.0453 |  |  |  |  | 
2 | C131D | 0.0829 | 0.0704 |  | 0.0662 | 0.0732 | 0.0735 |  |  |  |  |  | 0.0652 | 0.0588 | 0.0778 |  |  |  | 
3 | T132Q | 0.06 | 0.0603 | 0.0522 | 0.0644 | 0.0644 |  |  | 0.0655 | 0.0629 | 0.0752 |  |  | 0.0579 |  | 0.0699 |  |  | 
4 | F133C | 0.0878 | 0.0822 | 0.0779 | 0.0778 | 0.0647 | 0.0559 | 0.0687 |  | 0.0574 |  |  | 0.0559 |  |  |  | 0.0837 | 0.0657 | 
5 | F133V | 0.047 | 0.0893 | 0.0674 | 0.0499 | 0.0819 |  |  |  | 0.0781 | 0.0614 | 0.0601 | 0.0668 | 0.0748 | 0.0621 |  | 0.0683 | 0.0681 | 
6 | S135G | 0.0623 | 0.0476 | 0.0587 | 0.0598 |  | 0.06 | 0.0607 | 0.0533 |  | 0.0512 |  | 0.0594 | 0.0519 | 0.0264 |  | 0.0655 | 0.0561 | 
7 | S135P | 0.0754 | 0.0907 |  | 0.061 | 0.0679 | 0.0474 | 0.0641 |  |  |  | 0.0455 | 0.06 |  |  |  | 0.0595 |  | 
8 | S135V | 0.057 | 0.0666 |  | 0.0624 | 0.0597 | 0.0646 |  |  | 0.0713 | 0.0693 |  | 0.0592 | 0.062 | 0.0606 | 0.0659 | 0.0608 |  | 0.0663
9 | G136Y | 0.0607 | 0.0946 | 0.066 | 0.0678 | 0.0673 | 0.069 | 0.0447 | 0.065 | 0.0675 | 0.059 |  | 0.117 |  | 0.0565 |  |  | 0.0763 | 
10 | D137Y | 0.0606 | 0.0679 |  | 0.0937 | 0.0593 |  |  |  |  | 0.0381 | 0.0574 |  |  |  |  | 0.0721 |  | 
11 | G138N | 0.0662 | 0.073 | 0.0599 |  |  | 0.059 | 0.0514 | 0.0379 |  | 0.0628 |  | 0.0631 | 0.041 | 0.0511 |  |  |  | 
12 | G138V | 0.0581 | 0.0523 |  |  | 0.0554 |  |  |  |  | 0.0551 | 0.0605 | 0.0479 | 0.064 | 0.0634 |  | 0.0575 |  | 0.0532
13 | I139P | 0.0634 | 0.068 |  |  | 0.055 |  | 0.0561 |  | 0.0591 | 0.069 |  | 0.0746 | 0.0606 |  |  | 0.053 |  | 0.0722
14 | I139W | 0.0816 | 0.0682 | 0.0645 | 0.069 | 0.0578 | 0.0469 | 0.0578 | 0.0752 | 0.0759 | 0.0715 |  | 0.0746 |  | 0.083 |  |  |  | 0.0391
15 | W141C | 0.0552 | 0.0183 |  | 0.0586 | 0.0557 | 0.0636 |  | 0.0666 | 0.0624 | 0.0496 |  | 0.0617 | 0.0589 | 0.0109 |  | 0.0994 | 0.0572 | 0.0622
16 | W141R | 0.0534 | 0.0877 | 0.0425 | 0.051 |  |  | 0.0625 |  | 0.0459 | 0.0635 | 0.0466 | 0.0316 |  | 0.0454 | 0.062 |  |  | 0.0581
17 | K142D | 0.0728 | 0.0711 | 0.0628 | 0.0729 | 0.0643 | 0.0762 |  | 0.0826 | 0.0602 | 0.0338 |  | 0.0642 | 0.059 |  |  |  |  | 0.065
18 | K142P | 0.0265 | 0.0716 |  | 0.0443 | 0.037 |  | 0.0621 |  | 0.062 | 0.0552 | 0.0647 | 0.0566 | 0.0622 | 0.0522 | 0.0619 | 0.0502 | 0.0579 | 0.0618
19 | K142R | 0.0372 | 0.0658 |  | 0.0769 | 0.0537 | 0.0632 | 0.0304 |  | 0.0575 | 0.0635 |  | 0.0678 |  | 0.0863 |  |  | 0.0682 | 0.0597
20 | H143D | 0.0352 | 0.0583 |  | 0.0469 | 0.0566 |  | 0.0402 |  | 0.0639 | 0.0613 | 0.0529 | 0.0482 |  |  |  | 0.0599 | 0.0581 | 0.068
21 | I145Q | 0.0455 | 0.0393 |  | 0.0529 | 0.0481 |  | 0.0544 | 0.052 |  | 0.0571 | 0.0559 | 0.05 | 0.0442 |  |  |  |  | 0.0659
22 | Q146I | 0.0767 | 0.0914 |  | 0.0618 | 0.0726 | 0.0576 |  | 0.0717 | 0.0702 | 0.034 |  |  | 0.0722 |  | 0.0703 | 0.0707 | 0.0554 | 
23 | T147G | 0.042 | 0.0641 |  |  | 0.0634 |  |  |  |  | 0.0644 |  | 0.0595 |  |  |  | 0.053 |  | 0.0587
24 | T147I | 0.049 | 0.0577 | 0.0589 |  | 0.0577 | 0.069 |  |  | 0.0493 | 0.0678 | 0.0536 | 0.0653 |  | 0.0472 |  | 0.0544 |  | 0.0605
25 | T147P | 0.0571 | 0.067 | 0.0669 | 0.0686 | 0.0592 | 0.0548 | 0.0822 |  | 0.0591 | 0.0629 |  | 0.0553 | 0.0656 | 0.0556 |  | 0.0644 | 0.0657 | 0.0558
26 | T147W | 0.0472 | 0.0503 |  |  | 0.0639 | 0.0667 |  | 0.0647 | 0.0557 | 0.0661 | 0.0877 | 0.0643 | 0.0609 | 0.0677 |  |  | 0.042 | 0.0547
27 | K148W | 0.0456 | 0.0821 | 0.0697 | 0.0595 | 0.0452 | 0.0817 |  | 0.0565 | 0.0602 | 0.0685 | 0.0538 | 0.0634 | 0.0548 | 0.0599 | 0.0586 | 0.0665 |  | 0.0689
28 | D149V | 0.057 | 0.0716 | 0.051 | 0.0259 | 0.0282 | 0.0624 |  |  |  |  | 0.0688 | 0.0657 | 0.0629 |  |  | 0.0515 |  | 
29 | G150P | 0.0576 | 0.0515 | 0.0544 | 0.0537 | 0.0628 | 0.0597 | 0.0536 | 0.0569 | 0.0643 | 0.0603 | 0.0662 | 0.0456 |  | 0.0672 | 0.0489 | 0.0605 | 0.06 | 0.0604
